From PubChem BioAssay AID720709 (National Center for Advancing Translational Sciences (NCATS), 2013)
Hit rate of the full screen: of about 360,000 compounds, about 520 (0.14%) were called active. Inconclusive means that the source gave no clear call. Such entries were picked first, then a sample of the others. Calls come from the whole dose curve; as a rule, active = well fitted inhibition curve with a large enough effect; inconclusive = small, poorly fitted or top-dose-only effect; inactive = no such curve, though single readings can be large or run the other way. Potencies of inconclusive entries are left out as doubtful fits. *1 amine or outer side, *2 acyl side, *3 side chain or, on linkers, in order; H or OH if unused. Where a SMILES comes first, the peptide text is derived from it. Bridges are numbered along the chain shown (N, C = ends). [ ]: non-standard residue; d: D form. ξ: configuration not given here. hSer(Ph(2-I,4-NO2,6-CO)) = O=C([C@H](CCOc1c(I)cc([N+](=O)[O-])cc1C(=O)[*:3])N[*:1])[*:2]; ξD = NC(CC(=O)O)C(=O)O

What follows are molecules tested against Rap guanine nucleotide exchange factor 3 (Homo sapiens) (UniProt O95398) (assay: qHTS for Antagonist of cAMP-regulated guanine nucleotide exchange factor 3 (EPAC1): primary screen). Conditions: EPAC1 GEF assay, Rap1b-BODIPY-GDP exchange fluorescence; activity change, negative = inhibition: at 115 µM (top of the series).
Sequence of UniProt O95398 (O95398 whole entry, looked up): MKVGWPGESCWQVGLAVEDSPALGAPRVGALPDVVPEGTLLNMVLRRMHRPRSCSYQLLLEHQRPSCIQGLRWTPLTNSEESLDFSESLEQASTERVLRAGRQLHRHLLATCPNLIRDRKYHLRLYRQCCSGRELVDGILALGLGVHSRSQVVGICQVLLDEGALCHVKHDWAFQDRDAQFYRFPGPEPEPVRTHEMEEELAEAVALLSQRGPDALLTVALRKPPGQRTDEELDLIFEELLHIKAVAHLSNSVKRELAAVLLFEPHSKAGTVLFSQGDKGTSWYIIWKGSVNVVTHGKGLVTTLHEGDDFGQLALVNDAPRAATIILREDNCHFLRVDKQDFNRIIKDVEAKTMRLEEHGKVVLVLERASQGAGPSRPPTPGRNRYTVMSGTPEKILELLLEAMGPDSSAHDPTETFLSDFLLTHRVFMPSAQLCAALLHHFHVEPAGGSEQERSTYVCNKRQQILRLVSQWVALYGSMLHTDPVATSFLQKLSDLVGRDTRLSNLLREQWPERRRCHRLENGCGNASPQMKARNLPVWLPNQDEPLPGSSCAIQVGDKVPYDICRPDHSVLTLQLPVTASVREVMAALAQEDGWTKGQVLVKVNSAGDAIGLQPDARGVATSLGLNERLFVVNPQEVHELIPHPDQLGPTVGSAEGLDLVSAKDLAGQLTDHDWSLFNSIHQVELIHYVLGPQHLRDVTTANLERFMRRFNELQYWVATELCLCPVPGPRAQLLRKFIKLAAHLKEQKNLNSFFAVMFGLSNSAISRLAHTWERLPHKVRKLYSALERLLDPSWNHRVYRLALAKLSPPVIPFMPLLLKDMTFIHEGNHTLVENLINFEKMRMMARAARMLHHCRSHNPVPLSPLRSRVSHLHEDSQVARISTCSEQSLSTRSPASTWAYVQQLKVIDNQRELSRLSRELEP
Note: nearly all actives have a fitted effect of over 50% in size.
Potency is the fitted concentration of half-maximal effect; tags give direction and shape of the fitted curve.
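Throughout, for activity change, negative = inhibition: plate controls were vehicle for no effect and positive control for full effect.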

Structure (SMILES)	Potency	activity change, negative = inhibition
C#CCn1cc(/C=N/NC(=O)COc2cccc3cccnc23)c2ccccc21	inconclusive [inhibitor, partial curve]	–
Cc1cc(NC(=S)N(Cc2ccc(Br)cc2)Cc2ccc(C(=O)O)cc2)ccc1Cl	inconclusive [inhibitor, partial curve]	–
Cc1cnc(C(=O)OC(C(=O)Nc2cc(C(F)(F)F)ccc2Cl)c2ccccc2)cn1 (centres undefined)	inconclusive [inhibitor, single point]	–
O=C(OCC(=O)N1CCOCC1)c1ccc(Br)cc1	inconclusive [inhibitor, partial curve]	–
O=C(N/N=C/c1ccccc1O)c1cccc(C(F)(F)F)c1	active: 7.94 µM	–
c1ccc(-c2cc(-c3nc4ccccc4[nH]3)c3ccccc3n2)cc1	inconclusive [inhibitor, partial curve]	–
COc1ccc(N(CC(=O)NCc2ccccc2C)S(=O)(=O)c2ccc(C)cc2)cc1OC	inconclusive [inhibitor, single point]	–
COc1cc(/C=C(\C#N)C(=O)Nc2cc(C(F)(F)F)ccc2Cl)ccc1OCC(=O)Nc1cccc(C(F)(F)F)c1	inconclusive [inhibitor, single point]	–
C[C@@H]1NC(=O)c2cc([N+](=O)[O-])cc(I)c2OCC[C@@H](C(=O)NC(CC(=O)O)C(N)=O)NC(=O)[C@H](CCC(=O)O)NC1=O (some centres undefined) (AE[hSer(Ph(2-I,4-NO2,6-CO))][ξD]-NH2; lactam N-3)	inconclusive [inhibitor, full curve, poor fit]	–
Cc1ccc(S(=O)(=O)N2CCN(C(=O)C(C)Cn3cncn3)CC2)cc1 (centres undefined)	inconclusive [inhibitor, single point]	–
CCCCn1c(N)c(N(CCOC)C(=O)c2cc(-c3ccco3)nc3ccccc23)c(=O)[nH]c1=O	inconclusive [inhibitor, single point]	–
O=Cc1ccc(N2CCN(S(=O)(=O)c3ccc4c(c3)CC(=O)N4)CC2)cc1	inconclusive [inhibitor, full curve]	–
COc1ccc(C(=O)Nc2ccc(-c3nnn(CC(=O)N4CCN(C(=O)c5ccco5)CC4)n3)cc2)cc1	inconclusive [inhibitor, partial curve]	–
COc1ccc(C(c2nnnn2CS(=O)(=O)c2ccc(C)cc2)N2CCN(c3ncccn3)CC2)cc1 (centres undefined)	inconclusive [inhibitor, partial curve]	–
Cc1ccc(Oc2ccc(Cl)cc2N)cc1	inconclusive [inhibitor, partial curve, poor fit]	–
COc1cccc(C(=O)NC2CCCC2)c1	–	inactive: 12.3%
CCc1ccc(NS(=O)(=O)c2cc3c4c(c2)CCN4C(=O)CC3)cc1	inconclusive [inhibitor, partial curve]	–
Cc1ccc2c(c1)NC(=O)C(CC(=O)N(C)Cc1ccccc1)O2 (centres undefined)	inconclusive [inhibitor, single point]	–
Cc1cccc2cc3c(N)c(C#N)sc3nc12	inconclusive [inhibitor, single point]	–
CC1CCCN(c2nc3c(c(=O)[nH]c(=O)n3C)n2CCSc2nc3ccccc3o2)C1 (centres undefined)	inconclusive [inhibitor, single point]	–

Structure (SMILES)	Potency	activity change, negative = inhibition
O=C(N/N=C/c1ccc(O)cc1)c1cc(C23CC4CC(CC(C4)C2)C3)[nH]n1	inconclusive [inhibitor, single point]	–
O=C(NCCN1C(=O)S/C(=C/c2ccccc2)C1=O)C1CC(=O)N(Cc2ccccc2)C1 (centres undefined)	inconclusive [inhibitor, single point]	–
Cc1ccnc(NC(=O)Cn2c(=O)oc3ccccc32)c1	–	inactive: -23.5%
Cc1nnc(NC(=O)c2cccc(S(=O)(=O)N3CCN(C)CC3)c2)s1	inconclusive [inhibitor, single point]	–
Cc1cccc(C)c1Nc1nnc(SC/C(O)=C(\C#N)c2nc3ccccc3[nH]2)s1	inconclusive [inhibitor, single point]	–
O=C(O)c1ccc(NN=CC2=C(N3CCOCC3)/C(=C/c3ccccc3)CC2)cc1	inconclusive [inhibitor, partial curve]	–
COc1ccc(C(=O)c2c(C)c3cc(C)ccc3n2CC(O)CN2CCOCC2)cc1 (centres undefined)	inconclusive [inhibitor, single point]	–
COc1ccccc1-n1c(SCC(=O)Nc2cccc(S(N)(=O)=O)c2)nc2ccccc2c1=O	inconclusive [inhibitor, single point]	–
O=C(O)C(Cc1c[nH]c2ccccc12)NS(=O)(=O)c1ccc2ccccc2c1 (centres undefined)	inconclusive [inhibitor, partial curve]	–
CCOC(=O)Cc1csc(NS(=O)(=O)c2ccccc2)n1	–	inactive: 4.53%
O=C(Nc1ccc(OC(F)(F)F)cc1)N1CCN(c2ccnc3cc(Cl)ccc23)CC1	inconclusive [inhibitor, partial curve]	–
CCOc1ccc(N2CC(C(=O)Nc3ccc4c(c3)OCCO4)CC2=O)cc1 (centres undefined)	inconclusive [inhibitor, partial curve]	–
CCOC(=O)C1=C(N)Oc2cc(O)ccc2C1c1cccc([N+](=O)[O-])c1 (centres undefined)	inconclusive [inhibitor, partial curve]	–
Cc1nnc(NC(=O)c2c(-c3ccccc3)noc2C)s1	–	inactive: -2.12%
CCCCNS(=O)(=O)c1ccc2nc(SCC(=O)c3ccc(C#N)cc3)[nH]c2c1	inconclusive [inhibitor, partial curve, poor fit]	–
CNc1ncc(C(=O)c2ccc(F)cc2)s1	–	inactive: -7.11%
Cc1ccc(S(=O)(=O)NN2C(=O)/C(=C/c3cccs3)SC2=S)cc1	inconclusive [inhibitor, single point]	–
COc1cc(Cl)c(C)cc1NC(=O)CSc1cc(Cl)ccc1Cl	active: 25.1 µM	–
Nc1ncc(Br)cc1S(=O)(=O)Nc1cc(C(F)(F)F)cc(C(F)(F)F)c1	inconclusive [inhibitor, partial curve]	–
